The record followed here is the RNAGym collection of RNA variant scans (doi:10.7554/elife.90254).

The source gives no read counts; variants with many changes may rest on few reads.

Sequences and labels used below:
B1: OR4K15 (parent)
chain: GUUAACGGUCAUAGGCCAUGGAAACUAGGAGCACCAUUUCGCUGCCAGUGAAGAAAUGAACAAAGAAAAUCUGGGCCAGGCAGGCAUCAAAAGAAAUAGUCUUGCGCUCAACCAGAAAGUCUGUAAUCAUUUUAAGGGUA

In this data set the parent is B1. The data set can be described thus: self-cleavage, relative activity (ratio to wild type); higher = more cleavage; in vitro, sequencing; the parent is a self-cleaving ribozyme.
As to A30G A51G A92G U108C, the self-cleavage came to 0.01.
Consider A30U C46U A54U U108A, for which the self-cleavage was determined as 0.02.
Next, A33C A69G C85U U130C: 0.23; A30G A36G C112U: 0.04.
On to C32U U120C U130C, for which the self-cleavage was determined as 0.48.
For A30G A60G A90G, the self-cleavage was determined as 0.56.
For the variant A30G U38C U127C, the self-cleavage came out at 1.01.
A33G A36G G58U A111U: the self-cleavage was determined as 0.05.
For the variant G29U A62G A67G G75C A116G, the self-cleavage turned out to be 0.08.
In the case of A27G C46U A51G, the self-cleavage was found to be 0.6.
Consider A30G U49G A62G A89U A98G, for which the self-cleavage is 0.24.
Under A30G U70C A140G stands 0.87.
Next, A27G C42U U87C: 0.94.
Next, A27U U39C A125G U133C: 1.38.
A27G A91C U102C: the self-cleavage was 1.09.
Turning to A30G U43C U57A U132A, the self-cleavage was found to be 0.87.
Next, A30U A94G U132C: 1.81.
Next, A33C A89G A117G U124C: 1.18.
Under A30G U39C U72C A95G U131A stands 0.61.
For A30G U39A U130C, the self-cleavage came to 1.14.
Consider A30G A33G A54U A95G U108C, for which the self-cleavage came to 0.01.
Consider A27G U72A U100C, for which the self-cleavage was 0.55.
Take G28C A47G A55G A63G U130C U131C: the self-cleavage is 0.88.
Take A30G U39C A54G U70A G74A A89G A134U: the self-cleavage is 0.08.
With G31U A68G A126G, the self-cleavage was 0.54.
Next, G29A A62G U127C: 0.97.
Under A30G U100C A116U stands 0.07; under A30G U43A U72C A78G A116U, 0.05.
With A30U A59U U87C A125G, the self-cleavage was 0.43.
As to G31C A68G A89G C112A, the self-cleavage is 0.
Next, A30U A95G A140G: 1.54; A27U A55G A60G A95G U108A U132C: 0.01.
In the case of C32U A54U A60G A78G, the self-cleavage was found to be 0.21.
As for A30G A51G A116G, the self-cleavage turned out to be 0.72.
Next, A27U C40G A54G U57C A67G: 1.21; A30G U49A A67G: 1.4; A30U U43C A90G U132A: 0.91.
Regarding G31U U39A A86G U103C U132C, the self-cleavage amounted to 1.1.
In the case of A30U U37C U38C, the self-cleavage worked out at 0.84.
Turning to A30U U39A A86G, the self-cleavage was 0.91.
Next, A27G A95G U103C U131C: 1.24.
As to A33C C40U A116G, the self-cleavage was determined as 0.92.
Under A27G U57C A94G A110G U131C stands 0.11; under A30G A67G U122C A126G U131C, 0.84.
With A30G A55G A96G, the self-cleavage was 1.11.
For A27G U49C A66G U127C U133C, the self-cleavage is 0.37.
Under A27G A96G A134U stands 0.52.
For A30U A36U U39A A82G A118G, the self-cleavage amounted to 0.4.
For the variant A27U C113A U122C, the self-cleavage was 0.01.
Take A30G A47U A51U U87C A94G U97C: the self-cleavage came out at 0.74.
Turning to A30U A78G U108C, the self-cleavage came out at 0.02.
A30G A98G U139C: the self-cleavage came out at 0.56.
For C32U U87C U100C, the self-cleavage stood at 2.06.
As to A33G A47U G138A, the self-cleavage was found to be 0.55.
Next, A30U U87C A135G: 1.58.
Next, G29A A114U U130C: 0.03; A30G U43C A68G G83A U97C A117G A140U: 1.02; C32U A36G A111G: 0.07.
On to A30G A59G A60G A82C A94G, for which the self-cleavage came out at 0.1.
For the variant G28A A67G A129G, the self-cleavage was 1.08.
For the variant A33C G106U G137A, the self-cleavage is 0.01.
Next, A30U A91G A134G: 1.86.
For the variant A30G A90G U130C U131C, the self-cleavage turned out to be 0.93.
For G31A A67G U87A A90G, the self-cleavage is 2.67.
Turning to A30G A51U U108C A117G, the self-cleavage was found to be 0.01.
As to G29A U49A U130C, the self-cleavage was determined as 0.79.
As for A30G U49C A129G U139C, the self-cleavage was 0.93.
Turning to A33G A47G A52G A94G U100C U127C, the self-cleavage came out at 1.06.
As to A30G U87C U100C, the self-cleavage was found to be 0.68.
Consider A27G G58A A94G, for which the self-cleavage was determined as 0.92.
Next, A30G A96G A118U: 0.8; A30G A33G U43A A78G: 0.25; A30G A91G A95G A110G: 0.25.
Take G31U U43A U122C: the self-cleavage stood at 2.73.
Under G28U U102C U122C stands 2.3; under A30U U49C A54G, 1.42.
Take A30U C40U C46U A90G C121U: the self-cleavage was 0.55.
G29A A36U A90G: the self-cleavage was 0.86.
Consider A30G A68G U100C A114G, for which the self-cleavage came out at 0.32.
As to A30C A63G U72A G75A G115U U133C U139C, the self-cleavage was determined as 0.02.
Under A30G A92G U102A A110C U130G stands 0.05; under A30G A118G U122C, 0.6.
A30G U49G A68G A90G: the self-cleavage turned out to be 0.59.
With A30U A68G U102C U103C U120C, the self-cleavage turned out to be 0.07.
Under A30G A54G A86G A90G stands 1.03; under A30G U43A U87C A89G, 1.26; under A27G U57C A59U A134G, 1.18.
Regarding G28A U43C A51G A68C, the self-cleavage came out at 0.91.
Next, A30U A47G A110G A116G A126G: 0.02; A30U A62G U102C: 1.44; A27U A30G G41U A92G C105U: 0.45.
Consider A27G U43G A96G, for which the self-cleavage was determined as 1.39.
Under A30G A60U G65A A68G A98G U122A stands 0.39; under A30G A68G A89U A110G, 0.16.
A30G A36G A52G: the self-cleavage was 1.17.
Under A30C A69G A86U stands 1.71; under A30U A110G U127C, 0.11.
On to A30G A47G A52G, for which the self-cleavage is 0.77.
Take A27U A33G A54G U57A: the self-cleavage was found to be 1.26.
Take A30G A51G G75A A94U: the self-cleavage stood at 0.2.
Regarding A30G U57C A64G U103C A114G, the self-cleavage was 0.07.
Next, A27U A51G A91G A96G: 0.9; A30U A94G A111C A118G: 0; A30C A36U A114U: 0.03.
Consider G28U A67G U122C, for which the self-cleavage was determined as 1.32.
A27G U57C U72C A96U: the self-cleavage was found to be 0.24.
As for A30G U132A A135G, the self-cleavage came to 0.05.
Next, G31C A89U U102C: 2.72; A30G A62G C76G A114U: 0.03; A30G C128U U133A: 2.05.
Next, A30G A66U A91U A116G U120A: 0.33; G31C A33G A59G A92G U97C: 0.73.
For A27G U57C A67G C76A, the self-cleavage came to 0.07.
In the case of A30U A68G U122C, the self-cleavage amounted to 1.3.
As to A33C U49C A66G U127C, the self-cleavage was determined as 1.62.
Take G29A C46U U57A A117G: the self-cleavage was 1.36.
As to A30U U39A A64G A69G A90G, the self-cleavage stood at 1.37.
On to C32U U38C G48A, for which the self-cleavage worked out at 1.88.
Next, A27G U43A A111G: 0; G29U U87C U122C A126G: 0.44.
On to A27G U37C A59G A96G U100C U122C, for which the self-cleavage amounted to 1.69.
For the variant A30G U57C A60G G73A, the self-cleavage turned out to be 0.23.
Take A30U C85A A89G C107U: the self-cleavage is 0.03.
Under A27G U108C A110G stands 0.02; under A30G U108C A116G U131C, 0.02; under A30G A64G U103C A125G U131G, 0.11.
Take A30G A47G A69G: the self-cleavage was 1.39.
Turning to A33G A36U U57C A69G U139A, the self-cleavage was 0.81.
Under G29A U57C U87C A94G U108A stands 0.02; under C32A U38C A92G, 1.85.
Regarding A30G A36U A68G, the self-cleavage stood at 1.12.
Under A27U A33U U39C A62U U103C stands 0.73.
As for A30G A36G A60U A114G, the self-cleavage was 0.47.
For A30G U37C A47G U49A U127C, the self-cleavage worked out at 0.67.
For A33C A54G A82U, the self-cleavage came out at 0.38.
Take A30G U103C A129U A140U: the self-cleavage amounted to 0.6.
For A30G U43C A92G U100C U130C G136A, the self-cleavage stood at 2.89.
G29C U102A U103C A114G: the self-cleavage worked out at 0.03.
For the variant A33G A36G G48U A82U U87C A110G, the self-cleavage was 0.03.
Next, G31C A33U A54G C76U U87C: 0.25.
Regarding A27G U39C A68G, the self-cleavage is 1.15.
Under C32U A98G U108A A135U stands 0.01.
Regarding A30G A94U A118G U130C, the self-cleavage was found to be 0.51.
In the case of A33C U38C A60G A114G, the self-cleavage was 0.45.
As for A30G A52C U131C, the self-cleavage was 0.78.
Next, A30G C35U A51G U57C A89G U103C: 0.17; A30G A56G A111G: 0.06; A30G A62G U100C: 1.72.
Take A30U A36G A90G U127C: the self-cleavage stood at 0.42.
On to A30G A67U U87G A110G, for which the self-cleavage stood at 0.15.
With A30G A52G A66G, the self-cleavage came out at 0.52.
Take G31U A62G A78U: the self-cleavage turned out to be 0.5.
Next, A30G A118G U120C U127G: 0.27; A30U A68G A78G A89U U108C: 0.01.
A27G U100C U108C U132C: the self-cleavage is 0.01.
A30G A69G A135G: the self-cleavage was found to be 0.5.
Consider A27G A78G U139C, for which the self-cleavage was determined as 0.28.
Next, A30G U38A A78G A129G: 0.15.
As to A27U A114C A117U A135U, the self-cleavage was found to be 0.01.
For the variant A30G G80U G83U U87C A114G A117G, the self-cleavage came to 0.01.
As for G28U U38C A60G A92G, the self-cleavage worked out at 0.09.
For the variant A30G A56G A67G A129G U130C, the self-cleavage worked out at 1.48.
C32U A86U G137A: the self-cleavage stood at 1.39.
For the variant A27U A33G A95G, the self-cleavage was 1.58.
On to A30G G74U A114U A117G A126G, for which the self-cleavage stood at 0.01.
With A30G U38C U103C A118G, the self-cleavage was determined as 0.48.
Turning to A33C A59U A63G, the self-cleavage came out at 0.31.
